± gives the standard deviation of the averaged measurements. Laboratory Escherichia coli strains with one amino-acid change in an essential protein, pooled on minimal glucose agar with carbenicillin or gentamicin at twice the control MIC (plus kanamycin and chloramphenicol for the plasmids), 48 h. Fold change of barcode share against drug-free plates; higher = less susceptible. Active = above 20 in both replicates (the paper's putatively resistant). '<' = one read or none on drug, '>' = one read or none on a drug-free plate. Shares are relative, so most strains fall below 1 when a few take over. Listed are strains with at least 15 reads on both drug-free plates, and hits; most hits rest on fewer reference reads. Replicate rank correlation about 0.5. Edits are read from barcodes.
B1: pyrC; numbered along this chain (parent)
chain: MTAPSQVLKIRRPDDWHLHLRDGDMLKTVVPYTSEIYGRAIVMPNLAPPVTTVEAAVAYRQRILDAVPAGHDFTPLMTCYLTDSLDPNELERGFNEGVFTAAKLYPANATTNSSHGVTSIDAIMPVLERMEKIGMPLLVHGEVTHADIDIFDREARFIESVMEPLRQRLTALKVVFEHITTKDAADYVRDGNERLAATITPQHLMFNRNHMLVGGVRPHLYCLPILKRNIHQQALRELVASGFNRVFLGTDSAPHARHRKESSCGCAGCFNAPTALGSYATVFEEMNALQHFEAFCSVNGPQFYGLPVNDTFIELVREEQQVAESIALTDDTLVPFLAGETVRWSVKQ
B2: cysN; numbered along this chain (parent)
chain: MNTALAQQIANEGGVEAWMIAQQHKSLLRFLTCGSVDDGKSTLIGRLLHDTRQIYEDQLSSLHNDSKRHGTQGEKLDLALLVDGLQAEREQGITIDVAYRYFSTEKRKFIIADTPGHEQYTRNMATGASTCELAILLIDARKGVLDQTRRHSFISTLLGIKHLVVAINKMDLVDYSEETFTRIREDYLTFAGQLPGNLDIRFVPLSALEGDNVASQSESMPWYSGPTLLEVLETVEIQRVVDAQPMRFPVQYVNRPNLDFRGYAGTLASGRVEVGQRVKVLPSGVESNVARIVTFDGDREEAFAGEAITLVLTDEIDISRGDLLLAADEALPAVQSASVDVVWMAEQPLSPGQSYDIKIAGKKTRARVDGIRYQVDINNLTQREVENLPLNGIGLVDLTFDEPLVLDRYQQNPVTGGLIFIDRLSNVTVGAGMVHEPVSQATAAPSEFSAFELELNALVRRHFPHWGARDLLGDK

Variants of: B1
Test: barcode share on antibiotic plates over drug-free plates; higher = less susceptible
Conditions: with Escherichia coli (laboratory strain); antibiotic: gentamicin; 2× MIC (MIC 0.45 µg/mL)
Protocol: (§1)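 A pool of E. coli strains, each edited to carry one amino-acid change in an essential protein, was grown for 48 h on minimal glucose agar with or without antibiotic; strain barcodes were sequenced; mean of two replicates.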
For MTAPSQVLKIRRPDDWHLHLRDGDMLKTVVPYTSEIYGRAIVMPNLAPPVTTVEAAVAYRQRILDAVPAGHDFTPLMTCYLTDSLDPNELERGFNEGVFTAAKLYPANATTNSSHGVTSIDAIMPVLERMEKIGMPLLVHGEVTHADIDIFDREARFIESVMEPLRQRLTALKVVWEHITTKDAADYVRDGNERLAATITPQHLMFNRNHMLVGGVRPHLYCLPILKRNIHQQALRELVASGFNRVFLGTDSAPHARHRKESSCGCAGCFNAPTALGSYATVFEEMNALQHFEAFCSVNGPQFYGLPVNDTFIELVREEQQVAESIALTDDTLVPFLAGETVRWSVKQ [F176W], the “fold change of barcode share” value was under 0.0163.

Variants of: B2
Test: as above
Conditions: with Escherichia coli (laboratory strain); antibiotic: carbenicillin; 2× MIC (3.1 µg/mL)
Protocol: as §1
With MNTALAQQIANEGGVEAWMIAQQHKSLLRFLTCGSVDDGKSTLIGRLLHDTRQIYEDQLSSLHNDSKRHGTQGEKLDLALLVDGLQAEREQGITIDVAYRYFSTEKRKFIIADTPGHEQYTRNMATGASTCELAILLIDARKGVLDQTRRHSFASTLLGIKHLVVAINKMDLVDYSEETFTRIREDYLTFAGQLPGNLDIRFVPLSALEGDNVASQSESMPWYSGPTLLEVLETVEIQRVVDAQPMRFPVQYVNRPNLDFRGYAGTLASGRVEVGQRVKVLPSGVESNVARIVTFDGDREEAFAGEAITLVLTDEIDISRGDLLLAADEALPAVQSASVDVVWMAEQPLSPGQSYDIKIAGKKTRARVDGIRYQVDINNLTQREVENLPLNGIGLVDLTFDEPLVLDRYQQNPVTGGLIFIDRLSNVTVGAGMVHEPVSQATAAPSEFSAFELELNALVRRHFPHWGARDLLGDK [I154A] the “fold change of barcode share” value was 0.529 ± 0.38. MNTALAQQIANEGGVEAWMIAQQHKSLLRFLTCGSVDDGKSTLIGRLLHDTRQIYEDQLSSLHNDSKRHGTQGEKLDLALLVDGLQAEREQGITIDVAYRYFSTEKRKFIIADTPGHEQYTRNMATGASTCELAILLIDARKGVLDQTRRHSFISTLLGIKHLVVAINKMDLVDYSEETFTRIREDYLTFAGQLPGNLDIRFVPLSALEGDNVASQSESMPWYSGPTLLEVLETVEIQRVVDAQPMRFPVQYVNRPNLDFRGYAGTLASGRVEVGQRVKVLPSGVESNVARIVTFDGDREEAFAGEAITLVLTDEIDISRGDLLLAADEALPAVQSASVDVVWQAEQPLSPGQSYDIKIAGKKTRARVDGIRYQVDINNLTQREVENLPLNGIGLVDLTFDEPLVLDRYQQNPVTGGLIFIDRLSNVTVGAGMVHEPVSQATAAPSEFSAFELELNALVRRHFPHWGARDLLGDK [M344Q] was tested, and the “fold change of barcode share” value was 0.682 ± 0.089. MNTALAQQIANEGGVEAWPIAQQHKSLLRFLTCGSVDDGKSTLIGRLLHDTRQIYEDQLSSLHNDSKRHGTQGEKLDLALLVDGLQAEREQGITIDVAYRYFSTEKRKFIIADTPGHEQYTRNMATGASTCELAILLIDARKGVLDQTRRHSFISTLLGIKHLVVAINKMDLVDYSEETFTRIREDYLTFAGQLPGNLDIRFVPLSALEGDNVASQSESMPWYSGPTLLEVLETVEIQRVVDAQPMRFPVQYVNRPNLDFRGYAGTLASGRVEVGQRVKVLPSGVESNVARIVTFDGDREEAFAGEAITLVLTDEIDISRGDLLLAADEALPAVQSASVDVVWMAEQPLSPGQSYDIKIAGKKTRARVDGIRYQVDINNLTQREVENLPLNGIGLVDLTFDEPLVLDRYQQNPVTGGLIFIDRLSNVTVGAGMVHEPVSQATAAPSEFSAFELELNALVRRHFPHWGARDLLGDK [M19P] was tested, and the “fold change of barcode share” value was 0.828 ± 0.27. MNTALAQQIANEGGVEAWMIAQQHKSLLRFLTCGSVDDGKSTLIGRLLHDTRQIYEDQLSSLHNDSKRHGTQGEKLDLALLVDGLQAEREQGITIDVAYRYFSTEKRKFIIADTPGHEQYTRNMATGASTCELAILLIDARKGVLDQTRRHSFISTLLGIKHLVVAINKMDLVDYSEETFTRIREDYLTFAGQLPGNLDIRFVPLSALEGDNVASQSESMPWYSGPTLLEVLETVEIQRVVDAQPMRFPVQYVNRPNLDFRGYAGTLASGRVEVGQRVKVLPSGVESNVARIVTFDGDREEAFAGEAITLVLTDEIDISRGDLLLAADEALPAVQSASVDVVWDAEQPLSPGQSYDIKIAGKKTRARVDGIRYQVDINNLTQREVENLPLNGIGLVDLTFDEPLVLDRYQQNPVTGGLIFIDRLSNVTVGAGMVHEPVSQATAAPSEFSAFELELNALVRRHFPHWGARDLLGDK [M344D] was tested, and the “fold change of barcode share” value was 22.7 [active]. MNTALAQQIANEGGVEAWMIAQQHKSLLRFLTCGSVDDGKSTLIGRLLHDTRQIYEDQLSSLHNDSKRHGTQGEKLDLALLVDGLQAEREQGITIDVAYRYFSTEKRKFIIADTPGHEQYTRNMATGASTCELAILLIDARKGVLDQTRRHSFISTLLGIKHLVVAINKMDLVDYSEETFTRIREDYLTFAGQLPGNLDIRFVPLSALEGDNVASQSESMPWYSGPTLLEVLETVEIQRVVDAQPMRFPVQYVNRPNLDFRGYAGTLASGRVEVGQRVKVLPSGVESNVARIQTFDGDREEAFAGEAITLVLTDEIDISRGDLLLAADEALPAVQSASVDVVWMAEQPLSPGQSYDIKIAGKKTRARVDGIRYQVDINNLTQREVENLPLNGIGLVDLTFDEPLVLDRYQQNPVTGGLIFIDRLSNVTVGAGMVHEPVSQATAAPSEFSAFELELNALVRRHFPHWGARDLLGDK [V293Q] was tested, and the “fold change of barcode share” value was 1.17 ± 0.12.

Same assay, conditions: with Escherichia coli (laboratory strain); antibiotic: gentamicin; 2× MIC (MIC 0.45 µg/mL)
With MNTALAQQIANEGGVEAWMIAQQHKSLLRFLTCGSVDDGKSTLIGRLLHDTRQIYEDQLSSLHNDSKRHGTQGEKLDLALLVDGLQAEREQGITIDVAYRYFSTEKRKFIIADTPGHEQYTRNMATGASTCELAILLIDARKGVLDQTRRHSFASTLLGIKHLVVAINKMDLVDYSEETFTRIREDYLTFAGQLPGNLDIRFVPLSALEGDNVASQSESMPWYSGPTLLEVLETVEIQRVVDAQPMRFPVQYVNRPNLDFRGYAGTLASGRVEVGQRVKVLPSGVESNVARIVTFDGDREEAFAGEAITLVLTDEIDISRGDLLLAADEALPAVQSASVDVVWMAEQPLSPGQSYDIKIAGKKTRARVDGIRYQVDINNLTQREVENLPLNGIGLVDLTFDEPLVLDRYQQNPVTGGLIFIDRLSNVTVGAGMVHEPVSQATAAPSEFSAFELELNALVRRHFPHWGARDLLGDK [I154A] the “fold change of barcode share” value was under 0.0159. In the case of MNTALAQQIANEGGVEAWMIAQQHKSLLRFLTCGSVDDGKSTLIGRLLHDTRQIYEDQLSSLHNDSKRHGTQGEKLDLALLVDGLQAEREQGITIDVAYRYFSTEKRKFIIADTPGHEQYTRNMATGASTCELAILLIDARKGVLDQTRRHSFISTLLGIKHLVVAINKMDLVDYSEETFTRIREDYLTFAGQLPGNLDIRFVPLSALEGDNVASQSESMPWYSGPTLLEVLETVEIQRVVDAQPMRFPVQYVNRPNLDFRGYAGTLASGRVEVGQRVKVLPSGVESNVARIVTFDGDREEAFAGEAITLVLTDEIDISRGDLLLAADEALPAVQSASVDVVWQAEQPLSPGQSYDIKIAGKKTRARVDGIRYQVDINNLTQREVENLPLNGIGLVDLTFDEPLVLDRYQQNPVTGGLIFIDRLSNVTVGAGMVHEPVSQATAAPSEFSAFELELNALVRRHFPHWGARDLLGDK [M344Q], the “fold change of barcode share” value is reported as 0.0256 ± 0.0051.

From the supplement of paper PMC11876631
